This is one part of the list. The list includes weakly bound sequences.
Target: T1, MBP-FoxP3dN (UniProt Q99JB6)
T1 sequence: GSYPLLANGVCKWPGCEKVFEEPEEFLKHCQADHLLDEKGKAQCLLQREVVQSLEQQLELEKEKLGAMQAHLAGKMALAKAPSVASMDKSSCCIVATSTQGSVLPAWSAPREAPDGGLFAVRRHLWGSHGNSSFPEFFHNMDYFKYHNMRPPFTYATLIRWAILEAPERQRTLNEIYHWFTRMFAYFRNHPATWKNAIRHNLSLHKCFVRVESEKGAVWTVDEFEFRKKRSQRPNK
Assay: PD-seq (MBP pull-down with sequencing)
Conditions: 20 mM Tris-HCl pH 7.5, 100 mM NaCl, 1.5 mM MgCl2, 0.4 uM protein, 0.1 uM dsDNA library, 30 min, room temperature, amylose pull-down; high values mean tight binding; double strand, one strand shown

Sequence	binding signal (RPM ratio (pull-down/input))
GATGATTGTTCTCCCAGCTGATGAATTTGCGCCTTCGAGTAAACAAATTTTCCTAATCTTTCTGTTCAAGCGCCATCTAC	3.88
GATGATTGTTCTCCCAGCTGATGAATTCGCCTCATCGAGTAAACAAATTTTCCTAATCTTTCTGTTCAAGCGCCATCTAC	1.28
GATGATTGTTCTCCCAGCTGATGAATTCAACCCATCGAGTAAACAAATTTTCCTAATCTTTCTGTTCAAGCGCCATCTAC	0.37
GATGATTGTTCTCCCAGCTGATGAATTTTCATACTCGAGTAAACAAATTTTCCTAATCTTTCTGTTCAAGCGCCATCTAC	0.354
GATGATTGTTCTCCCAGCTGATGAATTTCTCTTGTCGAGTAAACAAATTTTCCTAATCTTTCTGTTCAAGCGCCATCTAC	0.265
GATGATTGTTCTCCCAGCTGATGAATTACGCATATCGAGTAAACAAATTTTCCTAATCTTTCTGTTCAAGCGCCATCTAC	3.11
GATGATTGTTCTCCCAGCTGATGAATTGCTGATCTCGAGTAAACAAATTTTCCTAATCTTTCTGTTCAAGCGCCATCTAC	0.759
GATGATTGTTCTCCCAGCTGATGAATTGCCTGTTTCGAGTAAACAAATTTTCCTAATCTTTCTGTTCAAGCGCCATCTAC	0.914
GATGATTGTTCTCCCAGCTGATGAATTTATTCCCTCGAGTAAACAAATTTTCCTAATCTTTCTGTTCAAGCGCCATCTAC	0.81
GATGATTGTTCTCCCAGCTGATGAATTCACAGGCTCGAGTAAACAAATTTTCCTAATCTTTCTGTTCAAGCGCCATCTAC	0.255
GATGATTGTTCTCCCAGCTGATGAATTCGGGTTGTCGAGTAAACAAATTTTCCTAATCTTTCTGTTCAAGCGCCATCTAC	0.775
GATGATTGTTCTCCCAGCTGATGAATTCAGAAAGTCGAGTAAACAAATTTTCCTAATCTTTCTGTTCAAGCGCCATCTAC	0.188
GATGATTGTTCTCCCAGCTGATGAATTTAGCATGTCGAGTAAACAAATTTTCCTAATCTTTCTGTTCAAGCGCCATCTAC	5.25
GATGATTGTTCTCCCAGCTGATGAATTCTAGGTATCGAGTAAACAAATTTTCCTAATCTTTCTGTTCAAGCGCCATCTAC	0.464
GATGATTGTTCTCCCAGCTGATGAATTTCTATAATCGAGTAAACAAATTTTCCTAATCTTTCTGTTCAAGCGCCATCTAC	0.307
GATGATTGTTCTCCCAGCTGATGAATTAATCATCTCGAGTAAACAAATTTTCCTAATCTTTCTGTTCAAGCGCCATCTAC	1.02
GATGATTGTTCTCCCAGCTGATGAATTCAGAAGTTCGAGTAAACAAATTTTCCTAATCTTTCTGTTCAAGCGCCATCTAC	0.234
GATGATTGTTCTCCCAGCTGATGAATTCTACATATCGAGTAAACAAATTTTCCTAATCTTTCTGTTCAAGCGCCATCTAC	0.452
GATGATTGTTCTCCCAGCTGATGAATTGGGTTGATCGAGTAAACAAATTTTCCTAATCTTTCTGTTCAAGCGCCATCTAC	1.06
GATGATTGTTCTCCCAGCTGATGAATTATACTGATCGAGTAAACAAATTTTCCTAATCTTTCTGTTCAAGCGCCATCTAC	0.461
GATGATTGTTCTCCCAGCTGATGAATTAGGTGCCTCGAGTAAACAAATTTTCCTAATCTTTCTGTTCAAGCGCCATCTAC	0.963

Sequence	binding signal (RPM ratio (pull-down/input))
GATGATTGTTCTCCCAGCTGATGAATTGAACCCATCGAGTAAACAAATTTTCCTAATCTTTCTGTTCAAGCGCCATCTAC	0.31
GATGATTGTTCTCCCAGCTGATGAATTCGTTCGATCGAGTAAACAAATTTTCCTAATCTTTCTGTTCAAGCGCCATCTAC	0.278
GATGATTGTTCTCCCAGCTGATGAATTCGACGAGTCGAGTAAACAAATTTTCCTAATCTTTCTGTTCAAGCGCCATCTAC	0.246
GATGATTGTTCTCCCAGCTGATGAATTACCTGTCTCGAGTAAACAAATTTTCCTAATCTTTCTGTTCAAGCGCCATCTAC	0.375
GATGATTGTTCTCCCAGCTGATGAATTTGCATGTTCGAGTAAACAAATTTTCCTAATCTTTCTGTTCAAGCGCCATCTAC	3.83
GATGATTGTTCTCCCAGCTGATGAATTCAGGAGCTCGAGTAAACAAATTTTCCTAATCTTTCTGTTCAAGCGCCATCTAC	0.191
GATGATTGTTCTCCCAGCTGATGAATTTTGGGTATCGAGTAAACAAATTTTCCTAATCTTTCTGTTCAAGCGCCATCTAC	0.819
GATGATTGTTCTCCCAGCTGATGAATTCTCTTTCTCGAGTAAACAAATTTTCCTAATCTTTCTGTTCAAGCGCCATCTAC	0.337
GATGATTGTTCTCCCAGCTGATGAATTGTCGCTTTCGAGTAAACAAATTTTCCTAATCTTTCTGTTCAAGCGCCATCTAC	1.28
GATGATTGTTCTCCCAGCTGATGAATTATTGATCTCGAGTAAACAAATTTTCCTAATCTTTCTGTTCAAGCGCCATCTAC	1.15
GATGATTGTTCTCCCAGCTGATGAATTACCTAGCTCGAGTAAACAAATTTTCCTAATCTTTCTGTTCAAGCGCCATCTAC	0.311
GATGATTGTTCTCCCAGCTGATGAATTCGGTACCTCGAGTAAACAAATTTTCCTAATCTTTCTGTTCAAGCGCCATCTAC	0.686
GATGATTGTTCTCCCAGCTGATGAATTCTCTTCTTCGAGTAAACAAATTTTCCTAATCTTTCTGTTCAAGCGCCATCTAC	0.255
GATGATTGTTCTCCCAGCTGATGAATTGCCGGTGTCGAGTAAACAAATTTTCCTAATCTTTCTGTTCAAGCGCCATCTAC	0.627
GATGATTGTTCTCCCAGCTGATGAATTCCAAAACTCGAGTAAACAAATTTTCCTAATCTTTCTGTTCAAGCGCCATCTAC	0.233
GATGATTGTTCTCCCAGCTGATGAATTTATTGGGTCGAGTAAACAAATTTTCCTAATCTTTCTGTTCAAGCGCCATCTAC	5.2
GATGATTGTTCTCCCAGCTGATGAATTACCCTTATCGAGTAAACAAATTTTCCTAATCTTTCTGTTCAAGCGCCATCTAC	0.445
GATGATTGTTCTCCCAGCTGATGAATTGGGGCTGTCGAGTAAACAAATTTTCCTAATCTTTCTGTTCAAGCGCCATCTAC	0.377
GATGATTGTTCTCCCAGCTGATGAATTGAGATGTTCGAGTAAACAAATTTTCCTAATCTTTCTGTTCAAGCGCCATCTAC	0.976
GATGATTGTTCTCCCAGCTGATGAATTCCACGCGTCGAGTAAACAAATTTTCCTAATCTTTCTGTTCAAGCGCCATCTAC	0.72
GATGATTGTTCTCCCAGCTGATGAATTCGGATCCTCGAGTAAACAAATTTTCCTAATCTTTCTGTTCAAGCGCCATCTAC	0.382

Sequence	binding signal (RPM ratio (pull-down/input))
GATGATTGTTCTCCCAGCTGATGAATTTGTTTGCTCGAGTAAACAAATTTTCCTAATCTTTCTGTTCAAGCGCCATCTAC	7.54
GATGATTGTTCTCCCAGCTGATGAATTTAGCGCCTCGAGTAAACAAATTTTCCTAATCTTTCTGTTCAAGCGCCATCTAC	1.56
GATGATTGTTCTCCCAGCTGATGAATTGGTTTCGTCGAGTAAACAAATTTTCCTAATCTTTCTGTTCAAGCGCCATCTAC	1.28
GATGATTGTTCTCCCAGCTGATGAATTGAAGGTATCGAGTAAACAAATTTTCCTAATCTTTCTGTTCAAGCGCCATCTAC	0.482
GATGATTGTTCTCCCAGCTGATGAATTTAGGCTATCGAGTAAACAAATTTTCCTAATCTTTCTGTTCAAGCGCCATCTAC	0.879
GATGATTGTTCTCCCAGCTGATGAATTGTACTCGTCGAGTAAACAAATTTTCCTAATCTTTCTGTTCAAGCGCCATCTAC	0.475
GATGATTGTTCTCCCAGCTGATGAATTTGATATATCGAGTAAACAAATTTTCCTAATCTTTCTGTTCAAGCGCCATCTAC	1.49
GATGATTGTTCTCCCAGCTGATGAATTGACGATGTCGAGTAAACAAATTTTCCTAATCTTTCTGTTCAAGCGCCATCTAC	0.459
GATGATTGTTCTCCCAGCTGATGAATTTCTGGATTCGAGTAAACAAATTTTCCTAATCTTTCTGTTCAAGCGCCATCTAC	0.223
GATGATTGTTCTCCCAGCTGATGAATTCTCCCCCTCGAGTAAACAAATTTTCCTAATCTTTCTGTTCAAGCGCCATCTAC	0.194
GATGATTGTTCTCCCAGCTGATGAATTAAGGGCTTCGAGTAAACAAATTTTCCTAATCTTTCTGTTCAAGCGCCATCTAC	0.345
GATGATTGTTCTCCCAGCTGATGAATTAATCGCGTCGAGTAAACAAATTTTCCTAATCTTTCTGTTCAAGCGCCATCTAC	0.578
GATGATTGTTCTCCCAGCTGATGAATTAACAACGTCGAGTAAACAAATTTTCCTAATCTTTCTGTTCAAGCGCCATCTAC	0.545
GATGATTGTTCTCCCAGCTGATGAATTCACGTCGTCGAGTAAACAAATTTTCCTAATCTTTCTGTTCAAGCGCCATCTAC	0.486
GATGATTGTTCTCCCAGCTGATGAATTAGTACCATCGAGTAAACAAATTTTCCTAATCTTTCTGTTCAAGCGCCATCTAC	0.878
GATGATTGTTCTCCCAGCTGATGAATTGGGCCGATCGAGTAAACAAATTTTCCTAATCTTTCTGTTCAAGCGCCATCTAC	0.464
GATGATTGTTCTCCCAGCTGATGAATTGATCGAGTCGAGTAAACAAATTTTCCTAATCTTTCTGTTCAAGCGCCATCTAC	0.295
GATGATTGTTCTCCCAGCTGATGAATTAGGAATTTCGAGTAAACAAATTTTCCTAATCTTTCTGTTCAAGCGCCATCTAC	1.18
GATGATTGTTCTCCCAGCTGATGAATTGGTGGAATCGAGTAAACAAATTTTCCTAATCTTTCTGTTCAAGCGCCATCTAC	0.276
GATGATTGTTCTCCCAGCTGATGAATTTCTAAATTCGAGTAAACAAATTTTCCTAATCTTTCTGTTCAAGCGCCATCTAC	0.265
GATGATTGTTCTCCCAGCTGATGAATTCTCGGACTCGAGTAAACAAATTTTCCTAATCTTTCTGTTCAAGCGCCATCTAC	0.183
